The source gives no read counts; variants with many changes may rest on few reads.
B1: LINE1-mini (parent)
chain: GGCAGAGCUCAACACAGCGUGGCAAAGUGGCUGUGGCUAGACUGCC

Variants of: B1
Test: self-cleavage, relative activity (ratio to wild type); higher = more cleavage; in vitro, sequencing; the parent is a self-cleaving ribozyme

Row | Variant | self-cleavage
1 | GGCAGAGCUCAACACAGGGUGGCAAAGUGGCCGUGGCUGGACUGCC | 0.15
2 | GGCAGAGCUCAACACAGGGUGGCAAAGUGGCUGAGGCUCGACUGCC | 0.01
3 | GGCAGAGCUCAACACAGGGUGGCAAAGUGGCUGUGGCCAGACAGCC | 0.01
4 | GGCAGAGCUCAACACAGUGUGGCCAUGUGGCUGUGGCUAGACUGCC | 0.27
5 | GGCAGAGCUCAACACAGUGUGGCCAACUGGCUGUGGCUAGACUGCC | 0.07
6 | GGCAGAGCUCAACACAGUGUGGCGAAGUGGCUGUGGCUACACUGCC | 0.05
7 | GGCAGAGCUCAACACAGUGUGGCGAAGUGGCUGUGGCUAUACUGCC | 0.12
8 | GGCAGAGCUCAACACAGUGUGGCUAAGUGGCUGUGGCUAGACUGCU | 0.05
9 | GGCAGAGCUCAACACAGUGUGGCACAGUGGCUGGGGCUACACUGCC | 0.02
10 | GGCAGAGCUCAACACAGUGUGGCAGAGUGGCUUUGGCUAGACUGCC | 0.02
11 | GGCAGAGCUCAACACAGUGUGGCAGAGUGGCUGUGGCCAUACAGCC | 0.02
12 | GGCAGAGCUCAACACAGUGUGGCAACCUGGCUGUGGCUACACUGCC | 0.05
13 | GGCAGAGCUCAACACAGUGUGGCAAGGUGGGUGUGCCUAGACUGCC | 0.01
14 | GGCAGAGCUCAACACAGUGUGGCAAUGUCGCUGUGGCUAGGCUGCC | 0.55
15 | GGCAGAGCUCAACACAGUGUGGAAAAGUGGGUGUGGCUAGACUGCC | 0.08
16 | GGCAGAGCUCAACACAGUGUGGAAAAUUGGCUGUGGCUAGACUGCC | 1.06
17 | GGCAGAGCUCAACACAGUGUGGAAAAGUGGCUGUGGCUAGACUCCC | 0.47
18 | GGCAGAGCUCAACACAGUGUGGGUUAGUGGCUGUAUCUAGAUUGCC | 0.06
19 | GGCAGAGCUCAACACAGUGUGGUAAAGUGUCUGUGGCUAGACUGCC | 0.15

Row | Variant | self-cleavage
20 | GGCAGAGCUCAACACAGUGUGGUAAAGUGGCUGUCGCUAGACUGCC | 0.01
21 | GGCAGAGCUCAACACAGUGUGGUAAAGUGGCUGAGGCUAGACUGCC | 0.09
22 | GGCAGAGCUCAACACAGUGUGGCAAAGUGGGUGUGGCUAGACUGAC | 0.11
23 | GGCAGAGCUCAACACAGUGUGGCAAAGUGGCUGUGGAUAGACUCCC | 0.02
24 | GGCAGAGCUCAACACAGUGUGGCAAAGUGGCUGUGGGUAGACUGGC | 0.02
25 | GGCAGAGCUCAACACAGUGUGGCAAAGUGGCUGUGGCUAGAAUUCC | 0.11
26 | GGCAGAGCUCAACACAGUGUGGCAAAGUGGCUGUGGCUAGACUGGU | 0.13
27 | GGCAGAGCUCAACACAGUAUGGCAAAGUGACUGUGGCUAGACUGCC | 1.18
28 | GGCAGAGCUCAACACAGUAUGGCAAAGUGGCUGUGACUAGAUAGCC | 0.01
29 | GGCAGAGCUCAACACAGUCUGUCAAAUUGGCUGUGGCUAGACUGCC | 0.44
30 | GGCAGAGCUCAACACAGUCUGGCAAAGUGGCUGUGGCUAGACAGCC | 0.06
31 | GGCAGAGCUCAACACAGUUUGGCAAAGUGGCUGUGGCUCGACUGCC | 0.23
32 | GGCAGAGCUCAACACAGUUUGGCAAAGUGGCUGUGGCUUGACUGCC | 0.24
33 | GGCAGAGCUCAACACAGUUUGGUAAAGUGGUUGUGGCUAGACUGCC | 0.06
34 | GGCAGAGCUCAACACAGUUUGGCAAAGUGGCUGUGGCUAGAAUGCC | 0.02
35 | GGCAGAGCUCAACACAGUGUUGCAAAGUGGCUGUAGCUAGACUGCC | 0.07
36 | GGCAGAGCUCAACACAGUGUUGCAAAGAGGCUGUGGCUAGACUGCC | 0.46
37 | GGCAGAGCUCAACACAGUGUGCCCAAGUGGCUGUGGCUAGACUGCC | 0.1
38 | GGCAGAGCUCAACACAGUGUGCCAAAGUGGCUGUGGCUUGACUGCC | 0.65

Row | Variant | self-cleavage
39 | GGCAGAGCUCAACACAGUGUGCCAAAGUGGCUUUAGCUAGACUGCC | 0.03
40 | GGCAGAGCUCAACACAGUGUGUUAAAGUGGCUGUGGCUAGAAUGCC | 0.03
41 | GGCAGAGCUCAACACAGUGUGUCAAAGUUGCUGUGGGUAGACUGCC | 0.01
42 | GGCAGAGCUCAACACAGUGUGUCAAAGUGGCUGUUGCUAGACUGCA | 0.03
43 | GGCAGAGCUCAACACAGUGUGGCAAAAAGGCGGUGGCUAGACUGCC | 0.05
44 | GGCAGAGCUCAACACAGUGUGGCAAAACGGCAGUGGCAAGACUGCC | 0.08
45 | GGCAGAGCUCAACACAGUGUGGCAAAUUGGCUGUGGCUAGACUGAC | 0.48
46 | GGCAGAGCUCAACACAGUGUGGCAAAUUGGCUGUGGCUAGACUGCU | 0.23
47 | GGCAGAGCUCAACACAGUGUGGCAAAUUGGCUGUGCCUAGACUGCC | 0.03
48 | GGCAGAGCUCAACACAGUGUGGCAAAUUGGCUGUGGCAAGACUGCC | 1.6
49 | GGCAGAGCUCAACACAGUGUGGCAAAGUAGCUCUGGCUAGACUGCC | 0.01
50 | GGCAGAGCUCAACACAGUGUGGCAAAGUAGCCGUGGCUAGACUGCC | 0.26
51 | GGCAGAGCUCAACACAGUGUGGCAAAGUUGGUGUGGCUAGACUGCC | 0.06
52 | GGCAGAGCUCAACACAGUGUGGCAAAGUUGCUGUGGCUAGAUUGCC | 0.11
53 | GGCAGAGCUCAACACAGUGUGGCAAAGUUGCUGUGGCUAGACUGUC | 0.4
54 | GGCAGAGCUCAACACAGUGUGGCAAAGUUGCUGUGGCUAGACUGCG | 0.65
55 | GGCAGAGCUCAACACAGUGUGGCAAAGUGACUGUGCCUAGACUGCC | 0.06
56 | GGCAGAGCUCAACACAGUGUGGCAAAGUGUCUGUGGGUAUACUGCC | 0.05

From the RNAGym collection of RNA variant scans (doi:10.7554/elife.90254)
